# Measurements as given in PubChem BioAssay AID1745853 (National Center for Advancing Translational Sciences (NCATS), 2022).
# The list shows a part of the results. Further columns of the screen follow, without active or inactive calls.
# What was measured:
# Test in all cases: Primary Screen for Target Class Profiling of Small Molecule Inhibitors of Methyltransferases
# [1] = molecular target: Glycine N-methyltransferase (Homo sapiens) (UniProt Q14749); settings: purified enzyme, MTase-Glo SAH luminescence; measured here: GNMT inhibition; at 40 µM; stronger effect = lower value
# Outline: (§1)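 Each enzyme was reacted with SAM and its substrate, with compounds tested once at 40 uM; SAH formed was read by MTase-Glo luminescence.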
# [2] = molecular target: Guanidinoacetate N-methyltransferase (Homo sapiens) (UniProt Q14353); settings: purified enzyme, MTase-Glo SAH luminescence; measured here: GAMT inhibition; at 40 µM; stronger effect = lower value
# Outline: as §1
# [3] = molecular target: Histamine N-methyltransferase (Homo sapiens) (UniProt P50135); settings: purified enzyme, MTase-Glo SAH luminescence; measured here: HNMT inhibition; at 40 µM; stronger effect = lower value
# Outline: as §1
# [4] = molecular target: Nicotinamide N-methyltransferase (Homo sapiens) (UniProt P40261); settings: purified enzyme, MTase-Glo SAH luminescence; measured here: NNMT inhibition; at 40 µM; stronger effect = lower value
# Outline: as §1
# [5] = molecular target: Phenylethanolamine N-methyltransferase (Homo sapiens) (UniProt P11086); settings: purified enzyme, MTase-Glo SAH luminescence; measured here: PNMT inhibition; at 40 µM; stronger effect = lower value
# Outline: as §1
# % is set by controls: 0 for no effect and ±100 for the full control effect.
SMILES,"activity change, negative = inhibition [1] [%]","activity change, negative = inhibition [2] [%]","activity change, negative = inhibition [3] [%]","activity change, negative = inhibition [4] [%]","activity change, negative = inhibition [5] [%]"
CC1(C)CCCC2(C)C1CC=C1C(=O)OC(O)C12O (stereo unspecified),2.1,-8.1,3.54,-19.5,-1.06
CC1(C(=O)NC2CCCCC2)Cc2ccccc2C(=O)N1Cc1ccc(F)cc1 (stereo unspecified),0.909,1.88,8.72,3.04,1.9
O=C(CC(c1ccccc1)c1ccccc1F)N1CCN(c2ccncc2)CC1 (stereo unspecified),-8.1,-7.53,-35.3,-22.2,-9.67
O=C1NC(=O)[C@@]2(CCOc3ccc(F)cc32)N1,5.68,9.14,7.03,-4.27,6.81
COC(=O)c1cc2n(n1)CC(C)(C(=O)NC1CCCCCC1)N(CCc1cccs1)C2=O (stereo unspecified),-2.79,0.782,-14.4,-0.447,-3.12
Cc1ccc(Cn2c(=O)c3ccccc3n3c(-c4ccc(F)cc4)nnc23)cc1,-7.92,1.18,-5.45,1.33,-6.09
CCC(C)NC(=O)c1ccc2c(=O)n(C)c3nn(Cc4ccccc4)c(=O)n3c2c1 (stereo unspecified),-0.663,0.494,-0.093,0.025,4.06
CC1(C)C(=O)N(CC2CCOCC2)[C@H]2CN(Cc3cccs3)C[C@@H]2[S+]1(=O)[O-],0.694,-11.2,0.698,-18.9,-3.31
CN1CCN(C(CN)C2CCCCC2)CC1 (stereo unspecified),-1.14,2.18,-7.99,-5.92,10.3
COC(=O)c1c(C)cc(OC(=O)c2c(C)cc(OC)cc2OC)cc1O[C@@H]1O[C@H](CO)[C@@H](O)[C@H](O)[C@H]1O,-4.93,-4.89,6.8,-18.1,-12.9
C=CCNC(=O)CCCc1nnc2n3nc(-c4ccccc4)nc3c3ccccc3n12,-8.48,4.38,-6.25,7.94,-7.14
O=C(C1CC1)N1CC[C@@H](Cc2n[nH]c(=O)n2-c2ccc(-c3ccc4occc4c3)cc2)C1,-3.28,-1.66,6.88,-14.2,1.57
CCCC1c2ccc(C)n2CCN1C(=O)Nc1cc(C)cc(C)c1 (stereo unspecified),-4.45,3.44,-5.59,4.16,-2.07
O=[S+]([O-])(c1cccc(C(F)(F)F)c1)N1CCCC2(CC(c3ccccn3)=NO2)C1 (stereo unspecified),-6.43,-9.16,-3.3,-10.7,-5.91
CC(=O)N1c2ccc(-c3ccc(C(=O)O)cc3)cc2[C@H](Nc2ccc(Cl)cc2)C[C@@H]1C,–,-1.87,–,-19.1,-1.33
CCCCOC(=O)NS(=O)(=O)c1sc(CC(C)C)cc1-c1ccc(Cn2ccnc2)cc1,-4.62,-3.66,7.09,-39.5,-2.64
CNc1nc(C(=O)N2CCC(c3nccn3Cc3ccncc3)CC2)cs1,-3.25,-10,0.034,-5.35,-0.109
CCOc1ccc(NC(=O)N2CCn3cccc3C2Cc2ccccc2)cc1 (stereo unspecified),6.19,3.26,-2.26,-3.17,-14.5
CSc1nc(N)c2ncn([C@@H]3O[C@H](COP(=O)(O)OP(=O)(O)OP(=O)(O)O)[C@@H](O)[C@H]3O)c2n1,-32.2,-11.2,-34.9,-30.4,-34.7
CC(=O)Nc1c2n(c3ccccc13)CC(C)(C(=O)NC1CCCC1)N(C1CCCC1)C2=O (stereo unspecified),5.18,1.68,7.45,10.2,5.45

SMILES,"activity change, negative = inhibition [1] [%]","activity change, negative = inhibition [2] [%]","activity change, negative = inhibition [3] [%]","activity change, negative = inhibition [4] [%]","activity change, negative = inhibition [5] [%]"
O=C(NC1CCCCC1)N1CCC(Cc2nc(-c3ccccc3)n[nH]2)C1 (stereo unspecified),-8.41,-10.1,-3.77,-13.2,-13.6
CCCSCCCN1C(=O)c2nc3ccccc3n2CC1(C)C(=O)NC1CCCCC1 (stereo unspecified),-3.38,3.08,-2.74,-2.96,-8.16
COc1ccc2cc(CNc3ccc(C)cc3)c(=O)n(CC(=O)Nc3cccc(C(F)(F)F)c3)c2c1,–,-24.5,–,-51.5,-17.7
Cn1c(=O)c2ccc(C(=O)NC3CCCC3)cc2n2c(=O)n(Cc3ccccc3Cl)nc12,-2.05,1.67,-1.18,-4.2,0.518
N#Cc1cccc(-c2cn3c(n2)N(C(=O)c2ccsc2)CCC3)c1,-4.6,-12.1,-40.5,-17.9,-12.1
CCCn1cnc2cc(CNS(=O)(=O)c3ccc(F)cc3)ccc21,4.26,0,1.22,-6.07,0.8
O=[S+]1([O-])N(Cc2ccccc2)C[C@@H](O)[C@]12CCN(Cc1ccc(C(F)(F)F)nc1)C2,-7.27,-5.01,-2.62,-13,-11.5
Cn1nccc1C(=O)N1CCC(N2CC(OCC3CC3)C23CCOCC3)CC1 (stereo unspecified),-1.19,-4.55,-1.13,-7.1,-1.77
CCCCN1C(=O)c2cc(C(=O)NCCc3ccccc3Cl)nn2CC1(C)C(=O)NC1CCCC1 (stereo unspecified),-0.582,1.71,-40.2,-8.41,-2.35
CCOC(=O)c1cc2n(n1)CC(C)(C(=O)NCCC(C)C)N(c1ccc(C)c(Cl)c1)C2=O (stereo unspecified),-4.54,4.81,0.068,-9.44,-1.65
Cc1ccc(NS(=O)(=O)c2ccc3c(c2)NC(=O)CC(=O)N3)c(C)c1,-5.14,-0.812,-2.07,-3.35,-4.52
COc1ccc(C2=CC(=O)OC2Cc2ccc(O)cc2)c(O)c1 (stereo unspecified),-0.397,1.25,-6.22,-11.5,3.17
O=C1CC(NS(=O)(=O)N2CCCC2)CN1Cc1ccc(F)cc1 (stereo unspecified),-4.66,-4.54,-0.994,-4.55,-7.03
COc1ccc(CCNC(=O)CCc2nnc3n(Cc4ccccc4Cl)c(=O)c4ccccc4n23)cc1OC,-13.2,5.43,5.16,-6.54,-1.98
CC1=C[C@@H](CNC(=O)CC(C)(C)C)[C@H](C(C)C)C[C@H]1CC(=O)NC1CCCC1,-5.21,-0.303,-2.88,-6.53,-4.66
Cc1ccc(-c2nnc(C3CN(C(=O)c4ccnn4C)CC34CCOCC4)o2)cc1 (stereo unspecified),0.368,-3.22,1.83,-3.46,2.63
Cc1ccc(NC(=O)N2CCn3cccc3C2C(C)C)cc1Cl (stereo unspecified),13.5,0,10.1,3.1,15.5
COc1ccccc1-c1cc(C(=O)N2CCOCC2)nc2c1cnn2C,-5.21,-2.1,-1.83,-7.72,-2.71
CCOC(=O)c1cc2n(n1)CC(C)(C(=O)NC1CCCCC1)N(Cc1ccccc1OCC)C2=O (stereo unspecified),7.62,3.43,2.65,1.48,5.73
